These results are taken from the supplement of paper PMC11417369.

Some of the results follow.

In this test the test system is PfAP2-HC AP2 domain (GST-tagged). Briefly: gcPBM binding intensity (ln(normalized median fluorescence intensity)); higher = stronger DNA binding. A digest of the protocol: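 Binding intensity is the highest Masliner-normalised natural-log median intensity over replicate spots in either probe orientation. To obtain it, GST-tagged P. falciparum DNA-binding domains made in E. coli were incubated for 1 h on an Agilent 4 × 180k array of primer-extended double-stranded 36-bp intergenic genomic probes plus negative controls. Detection used Alexa488 anti-GST antibody with scanning at 488 nm.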
In the case of “ATAAATATGTTCTGCACACAAATAAGTGTTTGAAGT [CACACA_site3892]”, the “gcPBM binding intensity (ln)” value is 9.84.
The figure for “TAATGGAATAAAAATTGTACATATTTTTTTTTTTTT [XGTACX_site7669]” is 9.41.
To “TGCCATATATATATTAAATACATAATAATGAGCCTA [GTGCAC_negctrl_site10]” belongs 9.42; to “AGTCATAAATTTATTTGTACATATAATATATATATA [XGTACX_site8489]”, 9.62.
The figure for “ATAAACAAAAAAAAAAAATATATCAATATATATATA [CACACA_negctrl_site299]” is 9.46; for “AAAATATATAATTTTTAACACACAAAAAAAAAAAAA [CACACA_site9192]” it is 9.65; for “ATATTAAAAAAATATGCATGCAAATATTATTTTGTA [TGCATGCA_site191]” it is 9.57.
“TAAAAATATAAAAAGTGTACAATATATAAATTAATA [XGTACX_site1606]”: the “gcPBM binding intensity (ln)” value worked out at 9.85.
The figure for “AATCAAATTTTCAAGTCGCACCAAACAAAAAAATGA [CACACA_negctrl_site1397]” is 9.86; for “TTTTTCTTTTTTTTTTTAATAATATATAACAAATTT [CACACA_negctrl_site1724]” it is 9.57.
To “TATTTAATTAATATAATATTAAACGGAAAAGATAAA [TGCATGCA_negctrl_site148]” belongs 9.58; to “ATGTTATATTTTTTTATACACACTGGGATATATAAA [CACACA_site6244]”, 9.65; to “TTCATTGTGTTAACGGTGCATATATTTTTTCACCGT [GTGCAC_site9464]”, 9.68.
In the case of “TAAAATTTACAACACTGTACTTGAATTTATCTTTAA [XGTACX_site241]”, the “gcPBM binding intensity (ln)” value was determined as 9.64.
To “CATTAATTTAATAAATGTACATAAAATATATATTAT [XGTACX_site8085]” belongs 9.54.
To “GCAGTATGCGATCAGTGTACGAGTTATTTTATAAAA [XGTACX_site4764]” belongs 9.34.
The figure for “AAATGCGTATATAACGCATGTATAAGAACATTTTTT [TGCATGCA_site225]” is 9.7; for “TTATAATCTATACATATATATGTATGTATGTCTCAA [CACACA_negctrl_site1702]” it is 9.69; for “GAAGTATTATTAAAGCTGCACTTTTCTAAAATAAAC [GTGCAC_site9429]” it is 9.5.
On to “ATATTACAAATATAATGTACAAAATATAAATATGCA [XGTACX_site8106]”, for which the “gcPBM binding intensity (ln)” value worked out at 9.78.
To “GTCCTTACTAATTAATTTTAGGCCATATAGTTTGTC [XGTACX_negctrl_site199]” belongs 9.64; to “GTTATACACATATATACACACATATGTAAATATATA [CACACA_site9080]”, 9.94.
As to “CTAATATATGTATGCACACACAATATATACATATTT [CACACA_site3360]”, the “gcPBM binding intensity (ln)” value is 10.1.
The figure for “ACATGATAAATAGTCACACATAAATATAATATATAT [CACACA_site5207]” is 9.89.
To “ATTATGGATACATAAACACACATATATATAAAAAAA [CACACA_site4303]” belongs 9.93; to “ATAATTATATTTTATTCACACATCGTTATATAGTAA [CACACA_site4743]”, 9.61.
On to “AATTATTCATAAAATGCATGTACATGGTTTAATATT [TGCATGCA_site87]”, for which the “gcPBM binding intensity (ln)” value worked out at 10.2.
With “TCGTAAACTTTATGCACACACATATACATATTTCAT [CACACA_site739]”, the “gcPBM binding intensity (ln)” value was found to be 10.8.
On to “ATACATGTTTTATGTGCACACAAAGTTGTTATGAGG [CACACA_site4032]”, for which the “gcPBM binding intensity (ln)” value stood at 10.1.
The figure for “TTATAATTTAATAAATGTACATAAATAATATACATA [XGTACX_site7271]” is 9.34; for “AACACAATAAAAATTAAAAATGTTAAGTAAATATAA [GTGCAC_negctrl_site60]” it is 9.72; for “AGACAATATCTTATTTGTACATATGTATTCCTCATA [XGTACX_site5757]” it is 9.76.
To “TTTTAATTTATCGACACACGCATGAATAGAAATTAG [CACACA_site3361]” belongs 9.61.
To “AAAAAAAAAAAAAAAACACACATATAGATTATTGTA [CACACA_site7797]” belongs 9.63; to “TATTTTTATTTTCCTTCACACATTTTTTATATTTTT [CACACA_site5830]”, 9.83; to “TATGTATATTTAAATGCATGTGATTATTTTTGACTT [TGCATGCA_site568]”, 9.53.
TTATAAATTTAAAAAGTGCATAATAATAACAAAAAG: the “gcPBM binding intensity (ln)” value was determined as 9.7.
To “ACTTTTTTTTTTTTTTTAGATTACATAAATATAAAT [CACACA_negctrl_site139]” belongs 9.59; to “TATACCTATAGACACACACACATAAATAGATATATA [CACACA_site6748]”, 11.1; to “TACACGCATAGACACACACACACACGCATATAAATA [CACACA_site6446]”, 11.3.
The figure for “TTTTTTTTTTTAAATAGTACACATATATATATATAT [XGTACX_site6983]” is 9.71.
The figure for “AAAAAAAAAAAAAAAAGTACAAAAAAAAAAAAAAAA [XGTACX_site4549]” is 8.73.
Take “TTTTATTTTTCTAGTAGTACTTCTTTTTATAATATA [XGTACX_site1181]”: the “gcPBM binding intensity (ln)” value was found to be 9.66.
Regarding “AGTTTACACCTTGTGAGTACATACATACATATATAT [XGTACX_site8793]”, the “gcPBM binding intensity (ln)” value was found to be 10.2.
On to “TTAACATTTTAAAAATGTACATTTATATACATAAAT [XGTACX_site922]”, for which the “gcPBM binding intensity (ln)” value came out at 9.37.
As to “AGAAAAATTCTAAGAACATGCAAAAAAATAAAAAAA [TGCATGCA_site293]”, the “gcPBM binding intensity (ln)” value came out at 9.53.
The figure for “TCTAATGTAATGCATACACACAACTATCCATCAAAA [CACACA_site534]” is 9.74.
The figure for “AAAAAATAAATAAATATACACACCATATATATATTT [CACACA_site2854]” is 10; for “CTTTGTAGTTGGTCCACACACATATATGGAAGAATA [CACACA_site1280]” it is 9.93.
Turning to “ATATATATATATATATATATATATATATTTATATAT [GTGCAC_negctrl_site180]”, the “gcPBM binding intensity (ln)” value stood at 9.38.
The figure for “TAATAATAGAGACACACACACATTTTTAATAATACA [CACACA_site6691]” is 10.5; for “TTTTTTTTTTTTTTGTCACACACCTTCATAAGAAAA [CACACA_site1166]” it is 9.51.
To “CACACCATATAATATATATATATGTATATATTTATA [CACACA_negctrl_site397]” belongs 9.67.
To “TAAAAGGAACAAAATTGTACTTAAAAGACAAAGTTA [XGTACX_site7661]” belongs 9.56; to “ACACAAAAATAAAAATGTACAAATTAAAAAAAATGA [XGTACX_site2083]”, 10; to “TTTGTTCTATGGAGTTTAAAATGTAATATATATTAA [GTGCAC_negctrl_site151]”, 9.43.
On to “ATCCTGAACAGAATATGTATAAACAGAAGGAAACAA [CACACA_negctrl_site1805]”, for which the “gcPBM binding intensity (ln)” value came to 9.85.
The figure for “ATATATATTAATAGTTGTACTATTATAATATTACAA [XGTACX_site1213]” is 9.5; for “TATAAGCAAAGACACACACACATATAAATATAAATA [CACACA_site7740]” it is 10.5; for “TATAAAATATATATCTGTACGTATTTTATTTTTTAT [XGTACX_site6257]” it is 9.75.
For “TACAAAATATTTTACACACACATATAAATACCTATA [CACACA_site7272]”, the “gcPBM binding intensity (ln)” value came out at 10.4.
The figure for TATATATATATATGAGTGCATATGTGTAATATAAAA is 9.81; for “TATATAATTATTTGATGTACACTACAATGTATTTGT [XGTACX_site7991]” it is 9.82.
“TTATGTTCTTAATGCACACTTATAAGTATCTTATAA [CACACA_site1394]”: the “gcPBM binding intensity (ln)” value stood at 9.67.
To “AATACAATATAAAGGTGTACATATATATATATATAT [XGTACX_site68]” belongs 10.7; to “ATGTAGATAGATAGGGTGCTAAAAATAAGATTTATA [GTGCAC_site9602]”, 9.62.
To “AAAAAAAAAAAAAAAACACACACAACACCCATACCT [CACACA_site9208]” belongs 10.4; to “TATTTTTATATATGACGTACTCTACAATTATTAATG [XGTACX_site5818]”, 9.6; to “TTTTTTTTTTTTGATGCACACACCTGAACGAGTTAA [CACACA_site317]”, 9.85.
With “AAAATATGTATGTAAAGTACTAATATACAAATTTTT [XGTACX_site5186]”, the “gcPBM binding intensity (ln)” value is 9.62.
To “ATCATTTTTAAAGGAACACACAAAAAAAATTAGAAT [CACACA_site1370]” belongs 9.78.
Take “GTTCAAAATATGAACACACACATATAGATTTATATA [CACACA_site7054]”: the “gcPBM binding intensity (ln)” value came to 9.96.
The figure for “AAAGGATATAGACACACACACACATATATATATATA [CACACA_site2200]” is 11.4; for “TGAAAAGTAAAATACACACACATAATATAATTTATA [CACACA_site1989]” it is 10.2.
In the case of “CATATACATCCACATACACACATACACCCATACACA [CACACA_site5038]”, the “gcPBM binding intensity (ln)” value stood at 10.4.
The figure for “ATTATTTTTTTTGTTACACACATGACTTATTTTTAT [CACACA_site3228]” is 10; for “ATATAAATATTCCACACACACACAAAAAAAAAAAAA [CACACA_site7678]” it is 11.
To “TTAATTATAAGAAAAAGTACTCATTACATTATAGAA [XGTACX_site678]” belongs 9.46; to “TAGTCGTTTTTTTAATGTACTCACGCATAATATAAT [XGTACX_site6499]”, 9.56; to “CATACATACCTATATACACACATATAAAATAATATA [CACACA_site7290]”, 9.85.
As for “AGTATACAGATATATACACACATATTTATATTTATA [CACACA_site6394]”, the “gcPBM binding intensity (ln)” value amounted to 9.88.
To “GGCAACATTTGAAACACACACACATACAAACAAACA [CACACA_site3307]” belongs 10.3.
To “TGTTATTATTTGTACACACACATATATATCCTTGTT [CACACA_site3616]” belongs 10.8; to “TCTATATGTTGATTCACACATAAAGAATAAATAAAA [CACACA_site6017]”, 9.57; to “AACACGCGCAGACACACACACACACCCACATATATA [CACACA_site2205]”, 10.6.
On to “TATAATATATTATATACACACATTATGAAATCCACA [CACACA_site1330]”, for which the “gcPBM binding intensity (ln)” value worked out at 9.92.
The figure for “TATATGAACTTATATACACACCATTTTTGTAAATCT [CACACA_site4547]” is 9.72; for “ATAAATATATTTTATAGTACATAAATATCAAAAAAA [XGTACX_site2334]” it is 9.56.
